# Measured values from the supplement of paper PMC7826260.
# Some of the results follow. Each Rep nickase domain was tested in vitro on the same pool of single strands at 3 µM enzyme and 37 °C for 1 h; the strands have 90 letters, of which the middle is given. Values are log2 of uncut reads against the no-enzyme pool; uncut sequences lie near 0, cut ones below; no hit call is given. Because reads are shares of a total, they shift together; values above 0 arise when much of the pool is cut.
# Assays:
# Assay in all cases: uncleaved DNA left, log2 of reads against the no-enzyme library (log2 ratio); higher = less cleavage (more negative = more Rep cleavage of the k-mer); sequences stand for … in CTCGTCCG…ACCGGAGA
# [1] = tested on: T1, Rep nickase domain of Muscovy duck circovirus
# T1 sequence (residues 1-111, tag not shown): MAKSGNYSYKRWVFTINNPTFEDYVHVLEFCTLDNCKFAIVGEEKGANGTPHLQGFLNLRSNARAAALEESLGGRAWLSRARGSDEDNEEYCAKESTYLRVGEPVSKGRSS
# Method: (§1)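 A pool of 90-nt single-stranded DNAs with seven random bases just before the constant AC of the nick site (name = the seven bases) was cut by 3 µM recombinant His6-SUMO-tagged Rep nickase domain (300 nM DNA, 50 mM HEPES pH 8.0, 50 mM NaCl, 1 mM MnCl2, 1 h, 37 °C, three replicates). Uncut DNA was amplified and sequenced.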
# [2] = tested on: T2, Rep nickase domain of banana bunchy top virus
# T2 sequence (residues 1-94, tag not shown): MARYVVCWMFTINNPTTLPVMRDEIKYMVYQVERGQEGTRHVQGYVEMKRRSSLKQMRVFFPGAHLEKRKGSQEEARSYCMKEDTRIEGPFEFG
# Method: as §1
# [3] = tested on: T3, Rep nickase domain of cabbage leaf curl virus
# T3 sequence (residues 1-116, tag not shown): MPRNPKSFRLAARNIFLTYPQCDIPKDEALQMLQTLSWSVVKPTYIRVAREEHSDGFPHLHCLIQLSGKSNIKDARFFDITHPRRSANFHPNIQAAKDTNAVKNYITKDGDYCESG
# Method: as §1
# [4] = tested on: T4, Rep nickase domain of chickpea chlorotic dwarf virus
# T4 sequence (residues 1-124, tag not shown): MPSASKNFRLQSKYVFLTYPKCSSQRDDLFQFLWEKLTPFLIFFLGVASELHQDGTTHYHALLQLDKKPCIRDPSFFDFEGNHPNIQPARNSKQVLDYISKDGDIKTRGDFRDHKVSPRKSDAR
# Method: as §1
# [5] = tested on: T5, Rep nickase domain of faba bean necrotic yellows virus
# T5 sequence (residues 1-98, tag not shown): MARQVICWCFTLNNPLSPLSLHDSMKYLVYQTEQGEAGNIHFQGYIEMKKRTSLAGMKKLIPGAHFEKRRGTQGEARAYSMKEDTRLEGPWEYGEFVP
# Method: as §1
# [6] = tested on: T6, Rep nickase domain of maize striate mosaic virus
# T6 sequence (residues 1-117, tag not shown): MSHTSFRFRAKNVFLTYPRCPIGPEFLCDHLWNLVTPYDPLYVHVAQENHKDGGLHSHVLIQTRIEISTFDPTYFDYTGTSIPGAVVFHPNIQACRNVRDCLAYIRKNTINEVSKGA
# Method: as §1
# [7] = tested on: T7, Rep nickase domain of porcine circovirus 2
# T7 sequence (residues 2-116, tag not shown): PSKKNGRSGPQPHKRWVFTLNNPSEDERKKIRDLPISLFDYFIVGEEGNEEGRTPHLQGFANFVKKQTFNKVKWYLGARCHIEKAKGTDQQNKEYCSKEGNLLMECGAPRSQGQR
# Method: as §1
# [8] = tested on: T8, Rep nickase domain of tomato golden mosaic virus
# T8 sequence (residues 1-124, tag not shown): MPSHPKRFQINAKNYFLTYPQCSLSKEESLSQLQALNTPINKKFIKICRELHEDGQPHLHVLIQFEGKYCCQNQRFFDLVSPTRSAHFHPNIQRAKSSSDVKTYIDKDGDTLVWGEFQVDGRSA
# Method: as §1
# [9] = tested on: T9, Rep nickase domain of tomato yellow leaf curl virus
# T9 sequence (residues 1-136, tag not shown): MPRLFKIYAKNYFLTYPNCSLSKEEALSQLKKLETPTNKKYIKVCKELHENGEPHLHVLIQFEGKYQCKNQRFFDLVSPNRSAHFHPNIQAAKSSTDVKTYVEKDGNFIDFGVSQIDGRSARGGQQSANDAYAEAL
# Method: as §1
# [10] = tested on: T10, Rep nickase domain of wheat dwarf virus
# T10 sequence (residues 1-137, tag not shown): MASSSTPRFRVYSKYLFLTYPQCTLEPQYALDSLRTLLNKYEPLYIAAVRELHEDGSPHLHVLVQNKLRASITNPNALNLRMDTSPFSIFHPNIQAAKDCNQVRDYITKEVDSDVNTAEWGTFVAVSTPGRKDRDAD
# Method: as §1
Sequence,uncleaved DNA left (log2) [1],uncleaved DNA left (log2) [2],uncleaved DNA left (log2) [3],uncleaved DNA left (log2) [4],uncleaved DNA left (log2) [5],uncleaved DNA left (log2) [6],uncleaved DNA left (log2) [7],uncleaved DNA left (log2) [8],uncleaved DNA left (log2) [9],uncleaved DNA left (log2) [10]
GTTCATC,-0.054,0.0207,0.209,0.884,-0.0975,1.52,0.0517,0.00389,0.053,-0.0313
CGCAACC,-0.0219,0.0137,0.017,-0.597,0.0952,-0.0601,-0.68,-0.0418,0.0654,0.0368
CCCTGGG,0.0591,0.0283,-0.415,-0.5,-0.0819,-0.893,0.173,-0.0216,-0.0345,0.0525
CCACTTT,0.0885,-0.00308,-0.346,-2.55,0.0875,-0.906,-0.42,-0.0369,-0.0208,-0.234
GCTCCGT,0.00873,0.015,-0.113,0.0529,-0.122,-0.303,0.0619,-0.0469,0.0353,0.0127
ATCACTC,-0.0575,-0.107,-0.14,-0.317,-0.129,-0.823,0.00931,-0.136,-0.169,-0.0597
ATGTTCT,-1.15,-0.26,-0.159,-2.21,-0.416,-0.772,-3.61,-0.0417,-0.0558,-0.152
TGTGGCC,0.0215,-0.0572,0.209,0.615,-0.0692,0.553,0.0556,,-0.0118,-0.0601
GTCACAG,-0.0766,0.0668,0.247,0.64,-0.077,1.45,0.172,,-0.0085,0.0533
GCCTAGC,-0.0227,-0.129,-0.42,-0.0784,-0.116,-0.869,-0.031,,-0.0793,-0.144
ACCAACT,-0.0897,-0.0189,-0.51,-2.73,0.0698,-0.686,-0.0573,,-0.1,-0.0758
TGATGAC,0.00192,0.0305,0.203,0.575,-0.00414,0.357,0.083,,-0.0328,0.0399
TTTTATA,-0.17,-0.0756,0.129,-1.19,0.0353,0.254,-0.274,,0.141,-0.0432
CAGAGGC,-0.0469,-0.057,-0.144,-0.254,-0.0207,-0.976,0.0156,,-0.14,-0.134
AGAGTTG,0.0853,0.0682,0.0709,0.527,-0.127,0.984,0.136,,-0.0781,0.0831
